In PMC4336329 (PLoS ONE, 2015):
Screen size: about 310,000 compounds; about 14,000 (4.5%) showed an effect of 50% or more. The effect is printed as a negative number. The list shows a part of the results.

Biological target: human ether-à-go-go-related gene (hERG) potassium channel (human, UniProt Q12809)
Test: primary screen, population patch clamp on CHO cells stably expressing hERG
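Further: peak tail current of the secondary pulse compared with the same well before compound.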

Chain of human ether-à-go-go-related gene (hERG) potassium channel (Q12809 whole entry, looked up): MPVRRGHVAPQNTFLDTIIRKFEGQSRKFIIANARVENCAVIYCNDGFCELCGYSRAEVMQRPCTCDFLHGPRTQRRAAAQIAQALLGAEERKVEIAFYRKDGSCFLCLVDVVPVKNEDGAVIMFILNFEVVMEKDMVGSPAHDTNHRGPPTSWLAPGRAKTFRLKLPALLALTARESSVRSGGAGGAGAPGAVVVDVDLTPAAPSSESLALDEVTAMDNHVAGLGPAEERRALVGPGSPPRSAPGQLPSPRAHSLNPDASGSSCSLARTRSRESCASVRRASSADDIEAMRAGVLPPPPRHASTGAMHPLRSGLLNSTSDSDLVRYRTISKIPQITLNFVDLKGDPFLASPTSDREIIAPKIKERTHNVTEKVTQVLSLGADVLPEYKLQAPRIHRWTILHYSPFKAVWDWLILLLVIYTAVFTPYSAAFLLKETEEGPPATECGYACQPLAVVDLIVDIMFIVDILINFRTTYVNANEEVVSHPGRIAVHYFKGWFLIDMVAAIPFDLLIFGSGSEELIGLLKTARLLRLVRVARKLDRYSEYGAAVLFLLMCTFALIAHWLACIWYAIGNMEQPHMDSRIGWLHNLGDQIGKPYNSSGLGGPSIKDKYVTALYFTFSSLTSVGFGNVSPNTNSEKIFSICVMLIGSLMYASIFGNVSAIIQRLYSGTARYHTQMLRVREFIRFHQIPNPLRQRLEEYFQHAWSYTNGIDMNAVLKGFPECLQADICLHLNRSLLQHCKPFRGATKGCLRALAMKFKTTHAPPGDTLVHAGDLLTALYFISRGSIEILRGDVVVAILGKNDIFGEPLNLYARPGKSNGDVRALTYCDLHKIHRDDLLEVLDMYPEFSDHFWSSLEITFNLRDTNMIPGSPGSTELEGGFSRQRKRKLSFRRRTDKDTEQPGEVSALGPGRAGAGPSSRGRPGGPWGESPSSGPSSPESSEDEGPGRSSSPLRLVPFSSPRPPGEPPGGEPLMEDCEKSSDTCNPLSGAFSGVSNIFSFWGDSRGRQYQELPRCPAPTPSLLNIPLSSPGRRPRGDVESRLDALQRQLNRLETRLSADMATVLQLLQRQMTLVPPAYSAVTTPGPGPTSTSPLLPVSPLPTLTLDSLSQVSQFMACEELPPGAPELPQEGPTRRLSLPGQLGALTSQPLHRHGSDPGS

Compound | hERG current change (%, negative = inhibition) at 10uM [%]
COc1c(C)cc(Br)cc1C(=O)Nc1ccc(C)cc1[N+](=O)[O-] | 15.9
CCc1cc2c(NCCC(=O)O)ncnc2s1 | 4.76
CCCc1nnc(NC(=O)CCC(=O)N2CCC(Cc3ccccc3)CC2)s1 | -1.49
Cc1ccc2c(CN3CCN(CCO)CC3)cc(=O)oc2c1 | -74.9
COc1ccc(CC(=O)Nc2ccccc2N2CCCC2)cc1OC | -5.03
Cc1ccc(-c2[nH]nc3c2C(c2cccnc2)C(C#N)=C(N)O3)cc1 (stereo not shown) | -7.46
Cc1cccnc1NC(=O)Cn1nc(-c2ccccc2)oc1=S | -2.2
COc1cc(/C=C/C(=O)OCC(=O)N(C)C2CCS(=O)(=O)C2)ccc1OC(F)F (stereo not shown) | -10.6
CCOC(=O)c1ccc(-n2ccnc2)c(NC(=O)c2ccc(Cl)cc2)c1 | -66.2
COc1cc2c(cc1OC)-c1nncn1C(C)(C)C2 | -6.6
COc1cc(OC)c(C(=O)O/N=C(\N)c2ccccn2)cc1OC | 12.1
CCC(N)C12CC3CC(CC(O)(C3)C1)C2.Cl (stereo not shown) | 9.05
CCc1ccc2nc3sc(C(=O)N4CCc5ccccc54)c(N)c3cc2c1 | 11.3
CCN(CC)S(=O)(=O)c1ccc2c(c1)nc(SCC(=O)N1CCCCCC1)n2-c1ccc(OC)cc1 | -21
COC(=O)C(NC(C)=O)(Nc1ccccc1)C(=O)OC | 23.8
CC(C)(C)NC(=O)NC(=O)CN1C(=O)NC(C)(c2ccccc2)C1=O (stereo not shown) | 15.8
CC(=O)N1CCN(CC(=O)Nc2ccc3c(c2)CCC3)CC1 | 7.59
CC(C)N(CCc1ccncc1)C(=O)Nc1ccc(F)cc1 | -7.73
CC(=Nc1cccc(C)c1)c1sc2ccccc2c1O | -3.09
Cn1c(SCC(=O)NCc2ccc3c(c2)OCO3)nc2scc(-c3cccs3)c2c1=O | 4.93

Compound | hERG current change (%, negative = inhibition) at 10uM [%]
Cc1cc(C)c(-c2csc(NC(=O)COC(=O)c3ccc4c(c3)OCO4)n2)c(C)c1 | -1.33
O=C(N/N=C/c1ccccn1)c1cccc([N+](=O)[O-])c1 | -10.3
c1ccn2c(CNc3ncnc4sccc34)nnc2c1 | -1.62
Cc1nn(-c2ccccc2)nc1C(N)=O | 14.5
CC(=O)COc1ccc2c3c(c(=O)oc2c1C)CCCCC3 | -8.54
COc1cc2c(cc1OC)CN(C(=O)c1cc(S(=O)(=O)N3CCOCC3)ccc1Cl)CC2 | -13.9
O=C1NCCN1Cc1ccc(Cl)cc1 | 11.1
CCCCCCCNC(=O)C1(CC2CC(c3ccc(Cl)cc3)=NO2)CCN(C(=O)C2(C)CC2)CC1 (stereo not shown) | -55.8
Cc1oc(C2CC2)cc1C(=O)O | -9.52
CC(=O)c1cnc2c(-c3ccc(Cl)cc3)c(C)nn2c1C | -1.58
O=C(CNC(=O)c1ccccc1)NCC1COc2ccccc2O1 (stereo not shown) | 3.74
CCCn1c(N)c(N(CCOC)C(=O)c2ccc(-c3ccccc3)cc2)c(=O)[nH]c1=O | 7.06
N#Cc1ccc(C(=O)NCC(c2ccco2)N2CCCC2)cc1 (stereo not shown) | -20.3
O=C(c1ccco1)N1CCN(C(=O)C2(S(=O)(=O)c3ccc(Cl)cc3)CC2)CC1 | -34
NC(=S)NNc1ccc(Cl)c(Cl)c1 | 16.3
Cc1cc(NC(=O)C2CCN(S(=O)(=O)Cc3ccccc3)CC2)ccc1-n1cnnn1 | -9.11
O=C(O)C1C2C=CC(O2)C1C(=O)NCCCn1ccnc1 (stereo not shown) | 7.11
Cc1cc(N/N=C/c2ccccc2F)nc(NCc2ccccc2)n1 | 14.4
COc1cc(-c2nnc(SCC(=O)/C(C#N)=C(\C)N)o2)cc(OC)c1OC | -4.13
O=C(CNC(=O)C1COc2ccccc2O1)N/N=C/c1ccc([N+](=O)[O-])cc1 (stereo not shown) | -71.8

Compound | hERG current change (%, negative = inhibition) at 10uM [%]
CCCCCn1c(=O)c(Cc2ccccc2)c(O)c2ccccc21 | -13.3
CCCCn1c(CCc2ccccc2)nc2cc3[nH]c(=O)c(C(C)C)nc3cc21 | 12
COc1ccc(NC(=O)C(NC(C)=O)C(=O)NCc2ccc(F)cc2)cc1 (stereo not shown) | 10
CC(NC(=O)/C(C#N)=C/c1cccs1)c1ccccc1 (stereo not shown) | -10.2
CC(C)CCNc1ncnc2c1nnn2Cc1ccccc1 | 0.724
O=[N+]([O-])c1cccc(-c2n[nH]c(=S)n2-c2ccccc2)c1 | 22.3
O=c1[nH]c(SCc2nc3ccccc3c(=O)n2-c2ccccc2)nc2ccccc12 | -2.13
CSc1cccc(NC(=S)N(CCCN2CCC(C)CC2)Cc2cccs2)c1 | -72.9
O=C(/C=C/c1ccc([N+](=O)[O-])cc1)Oc1ccc(/C=N/NC(=O)c2ccncc2)cc1 | 12.1
COc1ccc(C(=O)N2CCc3ccccc32)cc1 | 2.71
Cc1cc(-c2nnc(SCCC(=O)Nc3ccccc3)o2)no1 | 10.6
CC1(C)CC(=O)C(/C=N/n2cnc3ccccc3c2=O)=C(O)C1 | 12.7
CC1CCC(NC(=O)c2cc3ccccc3cc2O)CC1 (stereo not shown) | 0.709
Cc1cc(C)nc(-n2ncc3c2CC(C)CC3=O)n1 (stereo not shown) | 4.89
COc1ccc(CC(NC(C)=O)C(=O)NC2CCN(C(=O)Nc3ccc(Cl)cc3)CC2)cc1OC (stereo not shown) | -5.23
O=C(CCNS(=O)(=O)c1ccc(Br)cc1)NCc1ccc2c(c1)OCO2 | -3.3
Cc1ccccc1N(CC(=O)NC1CCCC1)C(=O)C1(C)CC(=O)N=C2C=CC(Cl)=CN21 (stereo not shown) | 13.4
Cc1cc(C(=O)N2CCCC(C(=O)c3ccc4ccccc4c3)C2)n(C)n1 (stereo not shown) | -2.06
